Laboratory results taken from the supplement of paper PMC10320760.
Single values of this set are uncertain.

B1: Ydj1; a variant is named by its letters at X, in order (parent)
chain: MVKETKFYDILGVPVTATDVEIKKAYRKCALKYHPDKNPSEEAAEKFKEASAAYEILSDPEKRDIYDQFGEDGLSGAGGAGGFPGGGFGFGDDIFSQFFGAGGAQRPRGPQRGKDIKHEISASLEELYKGRTAKLALNKQILCKECEGRGGKKGAVKKCTSCNGQGIKFVTRQMGPMIQRFQTECDVCHGTGDIIDPKDRCKSCNGKKVENERKILEVHVEPGMKDGQRIVFKGEADQAPDVIPGDVVFIVSERPHKSFKRDGDDLVYEAEIDLLTAIAGGEFALEHVSGDWLKVGIVPGEVIAPGMRKVIEGKGMPIPKYGGYGNLIIKFTIKFPENHFTSEENLKKLEEILPPRIVPAIPKKATVDECVLADFDPAKYNRTRASRGGANYDSDEEEQGGEGVQCXXX

Variants of: B1
Experiment: enrichment factor, frequency at 37 °C / frequency at 25 °C (thermotolerance selection) (ratio); higher = more growth at 37 °C, higher likelihood of farnesylation
Conditions: with Saccharomyces cerevisiae ydj1Δ (yWS304); selective temperature 37 °C; reference temperature 25 °C
In the case of FVN, the enrichment factor is reported as 1.31.
In the case of GVN, the enrichment factor is reported as 1.44.
HVN gave an enrichment factor of 1.88.
For IVN, the enrichment factor was 2.15.
Variant AVN has an enrichment factor of 1.87.
With KVN the enrichment factor was 3.31.
Variant LVN has an enrichment factor of 3.06.
With MVN the enrichment factor was 1.95.
With NVN the enrichment factor was 2.13.
For PVN, the enrichment factor was 1.47.
In the case of QVN, the enrichment factor is reported as 4.22.
For RVN, the enrichment factor was 1.71.
SVN showed an enrichment factor of 2.22.
In the case of TVN, the enrichment factor is reported as 4.05.
VVN showed an enrichment factor of 1.88.
Work on CVN yielded an enrichment factor of 1.18.
WVN showed an enrichment factor of 1.16.
In the case of YVN, the enrichment factor is reported as 1.27.
Work on DVP yielded an enrichment factor of 0.0847.
For EVP, the enrichment factor was 0.151.
With FVP the enrichment factor was 1.83.
Variant GVP has an enrichment factor of 0.264.
With HVP the enrichment factor was 1.28.
Variant IVP has an enrichment factor of 0.102.
AVP gave an enrichment factor of 0.16.
Variant KVP has an enrichment factor of 0.105.
LVP was tested, and the enrichment factor was 0.26.
MVP gave an enrichment factor of 0.138.
Work on NVP yielded an enrichment factor of 0.182.
With PVP the enrichment factor was 0.12.
QVP showed an enrichment factor of 0.144.
In the case of RVP, the enrichment factor is reported as 0.13.
SVP showed an enrichment factor of 0.125.
In the case of TVP, the enrichment factor is reported as 0.0993.
In the case of VVP, the enrichment factor is reported as 0.101.
With CVP the enrichment factor was 1.51.
With WVP the enrichment factor was 2.09.
Variant YVP has an enrichment factor of 1.85.
DVQ was tested, and the enrichment factor was 2.3.
Work on EVQ yielded an enrichment factor of 2.16.
With FVQ the enrichment factor was 1.29.
Work on GVQ yielded an enrichment factor of 1.34.
Work on HVQ yielded an enrichment factor of 3.1.
IVQ gave an enrichment factor of 1.45.
Work on AVQ yielded an enrichment factor of 1.88.
KVQ gave an enrichment factor of 4.37.
LVQ was tested, and the enrichment factor was 2.52.
MVQ showed an enrichment factor of 1.61.
With NVQ the enrichment factor was 3.42.
With PVQ the enrichment factor was 0.945.
With QVQ the enrichment factor was 3.08.
In the case of RVQ, the enrichment factor is reported as 2.35.
In the case of SVQ, the enrichment factor is reported as 2.13.
TVQ gave an enrichment factor of 2.26.
VVQ was tested, and the enrichment factor was 0.935.
CVQ gave an enrichment factor of 1.14.
WVQ showed an enrichment factor of 2.06.
In the case of YVQ, the enrichment factor is reported as 3.99.
DVR gave an enrichment factor of 0.12.
For EVR, the enrichment factor was 1.05.
FVR gave an enrichment factor of 0.219.
GVR was tested, and the enrichment factor was 0.191.
Variant HVR has an enrichment factor of 0.251.
IVR gave an enrichment factor of 1.66.
For KVR, the enrichment factor was 0.145.
AVR was tested, and the enrichment factor was 1.29.
LVR was tested, and the enrichment factor was 0.902.
With MVR the enrichment factor was 0.381.
Variant NVR has an enrichment factor of 0.591.
PVR showed an enrichment factor of 0.388.
QVR was tested, and the enrichment factor was 1.13.
Variant RVR has an enrichment factor of 0.255.
Variant SVR has an enrichment factor of 0.73.
With TVR the enrichment factor was 1.33.
In the case of VVR, the enrichment factor is reported as 1.27.
With WVR the enrichment factor was 0.251.
For CVR, the enrichment factor was 0.755.
For YVR, the enrichment factor was 0.157.
DVS showed an enrichment factor of 2.18.
With EVS the enrichment factor was 1.75.
FVS showed an enrichment factor of 0.965.
In the case of GVS, the enrichment factor is reported as 1.48.
Variant HVS has an enrichment factor of 2.21.
IVS showed an enrichment factor of 0.515.
KVS was tested, and the enrichment factor was 2.67.
AVS was tested, and the enrichment factor was 1.04.
Variant LVS has an enrichment factor of 2.62.
Variant MVS has an enrichment factor of 1.52.
Work on NVS yielded an enrichment factor of 1.74.
PVS showed an enrichment factor of 1.53.
QVS showed an enrichment factor of 4.7.
Variant RVS has an enrichment factor of 0.722.
With SVS the enrichment factor was 1.34.
In the case of TVS, the enrichment factor is reported as 0.97.
VVS was tested, and the enrichment factor was 0.489.
For WVS, the enrichment factor was 1.74.
CVS was tested, and the enrichment factor was 0.612.
Work on YVS yielded an enrichment factor of 1.7.
With DVT the enrichment factor was 1.98.
EVT gave an enrichment factor of 2.26.
In the case of FVT, the enrichment factor is reported as 1.62.
GVT was tested, and the enrichment factor was 2.38.
In the case of HVT, the enrichment factor is reported as 2.83.
IVT showed an enrichment factor of 1.83.
KVT showed an enrichment factor of 2.36.
AVT gave an enrichment factor of 1.37.
For LVT, the enrichment factor was 3.03.
MVT showed an enrichment factor of 1.98.
For NVT, the enrichment factor was 2.83.
In the case of PVT, the enrichment factor is reported as 1.59.
QVT was tested, and the enrichment factor was 2.5.
RVT was tested, and the enrichment factor was 1.25.
In the case of SVT, the enrichment factor is reported as 1.2.
In the case of TVT, the enrichment factor is reported as 1.01.
With VVT the enrichment factor was 0.736.
WVT showed an enrichment factor of 3.19.
CVT showed an enrichment factor of 0.903.
Variant YVT has an enrichment factor of 1.08.
With DVV the enrichment factor was 1.23.
For EVV, the enrichment factor was 2.06.
Work on FVV yielded an enrichment factor of 1.16.
GVV was tested, and the enrichment factor was 1.55.
Work on HVV yielded an enrichment factor of 1.16.
With IVV the enrichment factor was 1.65.
KVV was tested, and the enrichment factor was 1.5.
AVV was tested, and the enrichment factor was 1.48.
With LVV the enrichment factor was 0.914.
MVV was tested, and the enrichment factor was 1.66.
NVV gave an enrichment factor of 1.14.
PVV was tested, and the enrichment factor was 1.19.
In the case of QVV, the enrichment factor is reported as 2.65.
With RVV the enrichment factor was 1.27.
Work on SVV yielded an enrichment factor of 0.927.
TVV showed an enrichment factor of 0.965.
VVV showed an enrichment factor of 0.865.
In the case of WVV, the enrichment factor is reported as 2.7.
CVV gave an enrichment factor of 1.01.
YVV showed an enrichment factor of 2.12.
With DVW the enrichment factor was 1.41.
Work on EVW yielded an enrichment factor of 1.59.
FVW was tested, and the enrichment factor was 1.92.
GVW was tested, and the enrichment factor was 1.24.
With HVW the enrichment factor was 2.9.
With IVW the enrichment factor was 2.19.
With KVW the enrichment factor was 1.29.
Work on AVW yielded an enrichment factor of 0.579.
Variant LVW has an enrichment factor of 1.32.
For MVW, the enrichment factor was 1.16.
With NVW the enrichment factor was 0.689.
PVW was tested, and the enrichment factor was 0.573.
QVW gave an enrichment factor of 2.37.
In the case of RVW, the enrichment factor is reported as 1.9.
In the case of SVW, the enrichment factor is reported as 1.62.
With TVW the enrichment factor was 0.869.
Work on VVW yielded an enrichment factor of 0.869.
WVW was tested, and the enrichment factor was 1.26.
CVW gave an enrichment factor of 0.478.
With YVW the enrichment factor was 2.4.
DVY gave an enrichment factor of 1.76.
For EVY, the enrichment factor was 1.29.
FVY gave an enrichment factor of 1.27.
Work on GVY yielded an enrichment factor of 2.2.
HVY was tested, and the enrichment factor was 2.08.
With IVY the enrichment factor was 1.57.
In the case of KVY, the enrichment factor is reported as 2.74.
Variant AVY has an enrichment factor of 1.61.
Work on LVY yielded an enrichment factor of 3.43.
